Assay results as given in article PMC8865542.
Results are given in words; binding and its absence hold for the method and conditions named. For some of these results: In cells and extracts the contact can be indirect. Some binding calls cover weakened binding; strength is not graded here. Where a sequence is shown, tags or fusion partners need not be part of it.

Chains of the proteins cited; added tags and fusions are not shown. Lines headed by an entry give the natural chain unless they say otherwise; changes in a name come on top.
UniProt P78527: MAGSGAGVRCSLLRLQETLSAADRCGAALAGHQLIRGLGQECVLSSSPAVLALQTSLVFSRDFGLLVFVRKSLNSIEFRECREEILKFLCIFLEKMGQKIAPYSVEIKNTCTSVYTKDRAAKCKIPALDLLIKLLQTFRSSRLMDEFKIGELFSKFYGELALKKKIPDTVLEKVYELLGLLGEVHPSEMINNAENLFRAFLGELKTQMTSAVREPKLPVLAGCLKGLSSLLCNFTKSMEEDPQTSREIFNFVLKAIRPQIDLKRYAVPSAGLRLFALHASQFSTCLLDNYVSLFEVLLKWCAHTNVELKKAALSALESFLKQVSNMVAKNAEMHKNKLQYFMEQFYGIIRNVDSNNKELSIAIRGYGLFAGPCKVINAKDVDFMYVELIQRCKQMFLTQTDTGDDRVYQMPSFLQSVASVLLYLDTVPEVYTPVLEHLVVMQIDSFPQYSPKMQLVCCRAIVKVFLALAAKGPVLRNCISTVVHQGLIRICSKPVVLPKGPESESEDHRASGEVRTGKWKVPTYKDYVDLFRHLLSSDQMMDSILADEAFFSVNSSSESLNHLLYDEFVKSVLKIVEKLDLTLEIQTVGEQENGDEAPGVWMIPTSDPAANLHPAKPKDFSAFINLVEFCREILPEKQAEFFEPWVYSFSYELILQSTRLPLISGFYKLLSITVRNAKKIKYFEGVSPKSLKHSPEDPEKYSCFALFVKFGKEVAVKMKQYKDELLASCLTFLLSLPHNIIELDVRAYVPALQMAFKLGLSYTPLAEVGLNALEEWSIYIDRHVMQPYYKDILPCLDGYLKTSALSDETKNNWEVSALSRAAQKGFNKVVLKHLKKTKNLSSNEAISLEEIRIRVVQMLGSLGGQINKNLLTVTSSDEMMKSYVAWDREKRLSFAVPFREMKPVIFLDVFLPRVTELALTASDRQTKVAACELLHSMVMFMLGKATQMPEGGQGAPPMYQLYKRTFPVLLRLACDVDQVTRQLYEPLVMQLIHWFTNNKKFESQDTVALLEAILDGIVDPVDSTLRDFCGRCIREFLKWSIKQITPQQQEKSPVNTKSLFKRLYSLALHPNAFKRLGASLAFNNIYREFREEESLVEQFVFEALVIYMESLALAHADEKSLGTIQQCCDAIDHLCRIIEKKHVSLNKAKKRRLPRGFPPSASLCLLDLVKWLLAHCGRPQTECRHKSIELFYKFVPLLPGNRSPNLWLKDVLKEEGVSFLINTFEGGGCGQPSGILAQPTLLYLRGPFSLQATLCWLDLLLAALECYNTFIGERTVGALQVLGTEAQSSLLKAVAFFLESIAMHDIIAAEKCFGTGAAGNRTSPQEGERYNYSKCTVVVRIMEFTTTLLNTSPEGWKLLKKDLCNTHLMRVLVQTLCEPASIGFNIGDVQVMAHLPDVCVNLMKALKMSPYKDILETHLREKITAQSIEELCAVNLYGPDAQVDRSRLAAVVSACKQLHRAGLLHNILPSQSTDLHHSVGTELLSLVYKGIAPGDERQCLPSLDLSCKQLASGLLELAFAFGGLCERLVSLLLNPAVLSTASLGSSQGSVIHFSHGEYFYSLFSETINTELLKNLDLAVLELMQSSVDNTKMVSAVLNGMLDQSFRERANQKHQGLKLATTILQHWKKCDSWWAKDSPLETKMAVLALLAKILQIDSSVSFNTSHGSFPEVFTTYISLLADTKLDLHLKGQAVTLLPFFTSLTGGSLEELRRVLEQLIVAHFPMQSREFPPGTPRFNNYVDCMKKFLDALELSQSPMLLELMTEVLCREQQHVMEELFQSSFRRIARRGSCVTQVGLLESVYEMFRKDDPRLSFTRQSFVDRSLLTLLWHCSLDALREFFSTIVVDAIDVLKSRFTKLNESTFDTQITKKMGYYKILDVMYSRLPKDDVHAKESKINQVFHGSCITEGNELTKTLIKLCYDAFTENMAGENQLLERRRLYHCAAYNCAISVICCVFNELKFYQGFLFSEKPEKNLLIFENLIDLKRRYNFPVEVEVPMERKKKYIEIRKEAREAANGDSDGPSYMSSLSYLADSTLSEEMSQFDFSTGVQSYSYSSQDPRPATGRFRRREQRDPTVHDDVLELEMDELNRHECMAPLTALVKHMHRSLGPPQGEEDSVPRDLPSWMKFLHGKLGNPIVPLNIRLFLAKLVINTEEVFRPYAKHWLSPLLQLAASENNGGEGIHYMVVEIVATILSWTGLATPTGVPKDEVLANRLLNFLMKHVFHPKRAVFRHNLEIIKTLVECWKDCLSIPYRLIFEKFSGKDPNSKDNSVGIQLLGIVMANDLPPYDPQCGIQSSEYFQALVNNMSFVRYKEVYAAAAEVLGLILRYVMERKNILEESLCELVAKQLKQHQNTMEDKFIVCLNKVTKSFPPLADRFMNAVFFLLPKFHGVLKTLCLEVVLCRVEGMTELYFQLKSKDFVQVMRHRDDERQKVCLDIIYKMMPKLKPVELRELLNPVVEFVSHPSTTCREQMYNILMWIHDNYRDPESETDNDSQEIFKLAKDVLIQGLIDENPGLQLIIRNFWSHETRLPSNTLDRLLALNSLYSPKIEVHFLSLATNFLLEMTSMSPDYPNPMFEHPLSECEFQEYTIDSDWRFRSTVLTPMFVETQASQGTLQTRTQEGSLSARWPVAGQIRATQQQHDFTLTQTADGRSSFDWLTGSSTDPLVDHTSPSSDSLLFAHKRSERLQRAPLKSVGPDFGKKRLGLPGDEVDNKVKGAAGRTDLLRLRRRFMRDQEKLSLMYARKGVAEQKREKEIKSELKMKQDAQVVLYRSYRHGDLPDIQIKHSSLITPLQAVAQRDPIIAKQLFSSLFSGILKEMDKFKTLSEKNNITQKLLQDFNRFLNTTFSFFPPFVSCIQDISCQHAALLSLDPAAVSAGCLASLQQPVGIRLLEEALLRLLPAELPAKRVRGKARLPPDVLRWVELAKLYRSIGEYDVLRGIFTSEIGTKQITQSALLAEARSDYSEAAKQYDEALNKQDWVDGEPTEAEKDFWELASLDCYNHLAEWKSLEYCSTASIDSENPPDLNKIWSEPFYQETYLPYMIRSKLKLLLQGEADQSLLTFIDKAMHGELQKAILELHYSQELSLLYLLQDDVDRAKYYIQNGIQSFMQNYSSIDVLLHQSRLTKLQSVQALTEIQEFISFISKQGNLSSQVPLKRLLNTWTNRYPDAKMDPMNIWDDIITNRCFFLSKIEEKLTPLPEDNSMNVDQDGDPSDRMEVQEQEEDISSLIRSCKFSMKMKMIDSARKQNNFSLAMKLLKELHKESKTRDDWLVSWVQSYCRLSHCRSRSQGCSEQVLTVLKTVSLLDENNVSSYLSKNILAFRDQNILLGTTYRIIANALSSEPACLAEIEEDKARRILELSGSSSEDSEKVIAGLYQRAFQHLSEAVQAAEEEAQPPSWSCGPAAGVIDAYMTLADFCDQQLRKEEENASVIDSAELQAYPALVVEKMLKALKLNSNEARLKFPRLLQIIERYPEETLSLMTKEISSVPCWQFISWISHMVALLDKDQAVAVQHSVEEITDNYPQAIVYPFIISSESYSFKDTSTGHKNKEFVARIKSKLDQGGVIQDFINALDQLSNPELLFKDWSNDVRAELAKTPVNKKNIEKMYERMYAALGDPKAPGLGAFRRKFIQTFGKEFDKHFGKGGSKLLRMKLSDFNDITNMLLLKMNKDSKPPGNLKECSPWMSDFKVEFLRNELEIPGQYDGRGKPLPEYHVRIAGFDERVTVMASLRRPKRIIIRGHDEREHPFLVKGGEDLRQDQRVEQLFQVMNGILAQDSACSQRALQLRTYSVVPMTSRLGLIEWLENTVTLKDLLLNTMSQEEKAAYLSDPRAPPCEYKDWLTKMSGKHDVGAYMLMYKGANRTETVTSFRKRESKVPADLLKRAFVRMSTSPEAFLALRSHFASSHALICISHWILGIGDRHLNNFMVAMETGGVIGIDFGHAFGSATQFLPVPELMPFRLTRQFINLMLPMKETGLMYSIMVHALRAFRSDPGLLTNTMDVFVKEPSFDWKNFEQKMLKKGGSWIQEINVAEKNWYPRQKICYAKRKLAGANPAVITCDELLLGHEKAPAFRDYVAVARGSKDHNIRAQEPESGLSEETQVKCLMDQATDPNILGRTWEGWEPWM
UniProt P12956: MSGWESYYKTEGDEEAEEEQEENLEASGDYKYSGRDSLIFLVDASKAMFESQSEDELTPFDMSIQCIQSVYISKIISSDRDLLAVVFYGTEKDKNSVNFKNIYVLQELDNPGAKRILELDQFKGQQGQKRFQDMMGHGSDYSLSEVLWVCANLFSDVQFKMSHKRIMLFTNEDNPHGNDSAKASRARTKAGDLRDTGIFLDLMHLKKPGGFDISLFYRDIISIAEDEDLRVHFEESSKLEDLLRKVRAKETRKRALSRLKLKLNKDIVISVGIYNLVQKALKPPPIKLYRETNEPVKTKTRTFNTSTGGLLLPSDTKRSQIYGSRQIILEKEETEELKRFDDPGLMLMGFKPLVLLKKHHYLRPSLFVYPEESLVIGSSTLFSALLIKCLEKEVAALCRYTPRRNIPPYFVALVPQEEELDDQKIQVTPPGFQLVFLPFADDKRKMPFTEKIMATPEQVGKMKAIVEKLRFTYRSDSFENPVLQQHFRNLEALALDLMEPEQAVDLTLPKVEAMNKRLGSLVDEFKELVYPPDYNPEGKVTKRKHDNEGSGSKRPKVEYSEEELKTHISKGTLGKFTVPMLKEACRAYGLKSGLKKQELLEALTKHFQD
UniProt P11142: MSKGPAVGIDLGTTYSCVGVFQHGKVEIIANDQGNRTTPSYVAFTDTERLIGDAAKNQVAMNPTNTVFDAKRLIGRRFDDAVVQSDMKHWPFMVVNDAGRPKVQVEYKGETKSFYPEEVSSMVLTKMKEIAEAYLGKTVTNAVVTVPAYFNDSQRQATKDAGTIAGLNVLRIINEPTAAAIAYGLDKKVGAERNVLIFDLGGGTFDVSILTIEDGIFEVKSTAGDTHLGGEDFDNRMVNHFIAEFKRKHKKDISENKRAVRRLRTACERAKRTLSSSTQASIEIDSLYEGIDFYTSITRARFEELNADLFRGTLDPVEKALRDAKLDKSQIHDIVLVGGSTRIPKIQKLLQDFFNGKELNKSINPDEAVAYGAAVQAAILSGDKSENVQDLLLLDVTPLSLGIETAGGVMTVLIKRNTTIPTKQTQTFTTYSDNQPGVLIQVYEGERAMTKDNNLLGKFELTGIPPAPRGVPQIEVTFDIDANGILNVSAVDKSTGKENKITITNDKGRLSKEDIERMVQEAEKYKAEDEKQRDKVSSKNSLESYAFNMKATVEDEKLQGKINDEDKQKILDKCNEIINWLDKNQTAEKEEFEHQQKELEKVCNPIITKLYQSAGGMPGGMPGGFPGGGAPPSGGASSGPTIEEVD
UniProt P11940: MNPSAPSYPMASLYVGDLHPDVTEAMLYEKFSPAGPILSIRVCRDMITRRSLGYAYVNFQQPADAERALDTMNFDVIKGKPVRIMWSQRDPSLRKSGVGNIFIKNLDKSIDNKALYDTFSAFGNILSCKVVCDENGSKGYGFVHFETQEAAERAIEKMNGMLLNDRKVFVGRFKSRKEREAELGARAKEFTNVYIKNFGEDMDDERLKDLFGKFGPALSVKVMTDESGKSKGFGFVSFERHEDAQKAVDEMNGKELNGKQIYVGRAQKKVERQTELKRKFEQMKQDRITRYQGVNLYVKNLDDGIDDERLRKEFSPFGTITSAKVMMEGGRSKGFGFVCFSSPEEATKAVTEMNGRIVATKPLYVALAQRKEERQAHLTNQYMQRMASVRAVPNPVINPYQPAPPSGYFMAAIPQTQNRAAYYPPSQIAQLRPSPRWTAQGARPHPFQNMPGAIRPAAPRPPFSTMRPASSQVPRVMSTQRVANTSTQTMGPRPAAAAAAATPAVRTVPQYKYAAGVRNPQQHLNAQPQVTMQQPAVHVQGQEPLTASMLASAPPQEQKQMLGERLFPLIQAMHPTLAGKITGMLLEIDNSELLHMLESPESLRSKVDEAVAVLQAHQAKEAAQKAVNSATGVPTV

T1: HBoV1 NS1-100 with Flag tag (human bocavirus 1 (HBoV1)) (UniProt D0EZM8)
T1 sequence: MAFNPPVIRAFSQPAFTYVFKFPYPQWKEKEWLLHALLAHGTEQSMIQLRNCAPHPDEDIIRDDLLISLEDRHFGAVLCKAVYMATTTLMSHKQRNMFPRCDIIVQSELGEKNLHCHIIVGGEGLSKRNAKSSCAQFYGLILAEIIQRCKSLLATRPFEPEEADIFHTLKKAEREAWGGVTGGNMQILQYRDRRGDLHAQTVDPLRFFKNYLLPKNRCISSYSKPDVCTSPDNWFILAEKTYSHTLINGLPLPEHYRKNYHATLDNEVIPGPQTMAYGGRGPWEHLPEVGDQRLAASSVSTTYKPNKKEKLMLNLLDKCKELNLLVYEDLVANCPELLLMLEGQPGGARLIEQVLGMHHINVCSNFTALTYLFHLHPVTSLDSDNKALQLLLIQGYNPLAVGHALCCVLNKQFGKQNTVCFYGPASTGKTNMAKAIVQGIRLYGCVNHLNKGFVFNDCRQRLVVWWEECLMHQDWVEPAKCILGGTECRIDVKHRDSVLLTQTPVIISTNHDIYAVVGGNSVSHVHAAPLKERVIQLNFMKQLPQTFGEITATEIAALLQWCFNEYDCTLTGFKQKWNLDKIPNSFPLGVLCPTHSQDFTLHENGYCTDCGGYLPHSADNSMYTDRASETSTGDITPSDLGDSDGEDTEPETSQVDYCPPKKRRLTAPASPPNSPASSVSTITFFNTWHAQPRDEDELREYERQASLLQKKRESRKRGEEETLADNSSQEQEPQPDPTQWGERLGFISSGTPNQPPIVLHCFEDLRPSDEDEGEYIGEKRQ

T2: HBoV1 NS1-70 with Flag and His tags (human bocavirus 1 (HBoV1)) (UniProt D0EZM8)
T2 sequence: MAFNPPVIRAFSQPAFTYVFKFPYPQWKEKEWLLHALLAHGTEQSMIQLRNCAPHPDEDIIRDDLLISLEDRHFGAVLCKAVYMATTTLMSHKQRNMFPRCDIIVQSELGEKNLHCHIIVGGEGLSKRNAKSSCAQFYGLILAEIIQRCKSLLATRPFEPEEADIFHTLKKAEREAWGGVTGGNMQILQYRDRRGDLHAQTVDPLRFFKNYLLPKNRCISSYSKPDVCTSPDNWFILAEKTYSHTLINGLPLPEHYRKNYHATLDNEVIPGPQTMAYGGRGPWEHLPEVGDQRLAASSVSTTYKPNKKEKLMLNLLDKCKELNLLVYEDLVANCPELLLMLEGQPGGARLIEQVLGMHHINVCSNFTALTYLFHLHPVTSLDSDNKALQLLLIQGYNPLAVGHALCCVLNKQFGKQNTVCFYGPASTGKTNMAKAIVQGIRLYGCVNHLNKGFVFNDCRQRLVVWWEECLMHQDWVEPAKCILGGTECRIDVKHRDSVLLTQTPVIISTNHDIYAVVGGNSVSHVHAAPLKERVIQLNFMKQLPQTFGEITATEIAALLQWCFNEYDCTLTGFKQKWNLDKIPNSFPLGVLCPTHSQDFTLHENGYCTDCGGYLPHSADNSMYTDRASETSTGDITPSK


Key:
[1] = biological target: T1, HBoV1 NS1-100 with Flag tag (human bocavirus 1 (HBoV1)); test: co-IP; HEK293 cells transfected with pCI-optNS1^Flag or pCI; lysis buffer 50 mM Tris pH 8.0, 150 mM NaCl, 1% NP-40, without Benzonase; anti-Flag affinity resin at 4°C overnight; Western blotting
[2] = biological target: T1, HBoV1 NS1-100 with Flag tag (human bocavirus 1 (HBoV1)); test: co-IP; HEK293 cells transfected with pCI-optNS1^Flag or pCI; lysate treated with 250 U of Benzonase; anti-Flag affinity resin at 4°C overnight; Western blotting
[3] = biological target: T2, HBoV1 NS1-70 with Flag and His tags (human bocavirus 1 (HBoV1)); test: pull-down; both purified

| Molecule | binding [1] | binding [2] | binding [3] |
| --- | --- | --- | --- |
| DNA-PKcs (DNA-dependent protein kinase catalytic subunit) (from UniProt P78527 1-4128) | binds | binds |  |
| DNA-binding domain (SAP) of Ku70 domain C with Strep-tag II (from UniProt P12956 535-609) (domain or fragment) |  |  | no binding (tested: 2 μg) |
| HSPA8 (from UniProt P11142 1-646) | binds | binds |  |
| Ku70 (from UniProt P12956 1-609) | binds | binds |  |
| Ku70 domain A (α/β domain) with Strep-tag II (from UniProt P12956 1-250) (domain or fragment) |  |  | binds |
| Ku70 domain C (C-terminal domain) with Strep-tag II (from UniProt P12956 437-609) (domain or fragment) |  |  | binds |
| Ku70/Ku80 heterodimer (from UniProt P12956 1-609; P13010 1-732) (complex) |  |  | binds |
| Ku80 with GST tag (from UniProt P13010 1-732) |  |  | no binding (tested: 2 μg) |
| PABPC1 (from UniProt P11940 1-636) | binds |  |  |
| RPA1 (from UniProt P27694 1-616) | binds | binds |  |
| purified HSPA8 (from UniProt P11142 1-646) |  |  | binds |
| terminal arm of Ku70 domain C (C-Arm) with Strep-tag II (from UniProt P12956 437-534) (domain or fragment) |  |  | no binding (tested: 2 μg) |
| ORC3 (protein, UniProt Q9UBD5 1-711) MATSSMSKGCFVFKPNSKKRKISLPIEDYFNKGKNEPEDSKLRFETYQLIWQQMKSENERLQEELNKNLFDNLIEFLQKSHSGFQKNSRDLGGQIKLREIPTAALVLGVNVTDHDLTFGSLTEALQNNVTPYVVSLQAKDCPDMKHFLQKLISQLMDCCVDIKSKEEESVHVTQRKTHYSMDSLSSWYMTVTQKTDPKMLSKKRTTSSQWQSPPVVVILKDMESFATKVLQDFIIISSQHLHEFPLILIFGIATSPIIIHRLLPHAVSSLLCIELFQSLSCKEHLTTVLDKLLLTTQFPFKINEKVLQVLTNIFLYHDFSVQNFIKGLQLSLLEHFYSQPLSVLCCNLPEAKRRINFLSNNQCENIRRLPSFRRYVEKQASEKQVALLTNERYLKEETQLLLENLHVYHMNYFLVLRCLHKFTSSLPKYPLGRQIRELYCTCLEKNIWDSEEYASVLQLLRMLAKDELMTILEKCFKVFKSYCENHLGSTAKRIEEFLAQFQSLDETKEEEDASGSQPKGLQKTDLYHLQKSLLEMKELRRSKKQTKFEVLRENVVNFIDCLVREYLLPPETQPLHEVVYFSAAHALREHLNAAPRIALHTALNNPYYYLKNEALKSEEGCIPNIAPDICIAYKLHLECSRLINLVDWSEAFATVVTAAEKMDANSATSEEMNEIIHARFIRAVSELELLGFIKPTKQKTDHVARLTWGGC | binds | binds |  |
| SNW1 (protein, UniProt Q13573 1-536) MALTSFLPAPTQLSQDQLEAEEKARSQRSRQTSLVSSRREPPPYGYRKGWIPRLLEDFGDGGAFPEIHVAQYPLDMGRKKKMSNALAIQVDSEGKIKYDAIARQGQSKDKVIYSKYTDLVPKEVMNADDPDLQRPDEEAIKEITEKTRVALEKSVSQKVAAAMPVRAADKLAPAQYIRYTPSQQGVAFNSGAKQRVIRMVEMQKDPMEPPRFKINKKIPRGPPSPPAPVMHSPSRKMTVKEQQEWKIPPCISNWKNAKGYTIPLDKRLAADGRGLQTVHINENFAKLAEALYIADRKAREAVEMRAQVERKMAQKEKEKHEEKLREMAQKARERRAGIKTHVEKEDGEARERDEIRHDRRKERQHDRNLSRAAPDKRSKLQRNENRDISEVIALGVPNPRTSNEVQYDQRLFNQSKGMDSGFAGGEDEIYNVYDQAWRGGKDMAQSIYRPSKNLDKDMYGDDLEARIKTNRFVPDKEFSGSDRRQRGREGPVQFEEDPFGLDKFLEEAKQHGGSKRPSDSSRPKEHEHEGKKRRKE | binds | binds |  |
| MCM3 (protein, UniProt P25205 1-808) MAGTVVLDDVELREAQRDYLDFLDDEEDQGIYQSKVRELISDNQYRLIVNVNDLRRKNEKRANRLLNNAFEELVAFQRALKDFVASIDATYAKQYEEFYVGLEGSFGSKHVSPRTLTSCFLSCVVCVEGIVTKCSLVRPKVVRSVHYCPATKKTIERRYSDLTTLVAFPSSSVYPTKDEENNPLETEYGLSVYKDHQTITIQEMPEKAPAGQLPRSVDVILDDDLVDKAKPGDRVQVVGTYRCLPGKKGGYTSGTFRTVLIACNVKQMSKDAQPSFSAEDIAKIKKFSKTRSKDIFDQLAKSLAPSIHGHDYVKKAILCLLLGGVERDLENGSHIRGDINILLIGDPSVAKSQLLRYVLCTAPRAIPTTGRGSSGVGLTAAVTTDQETGERRLEAGAMVLADRGVVCIDEFDKMSDMDRTAIHEVMEQGRVTIAKAGIHARLNARCSVLAAANPVYGRYDQYKTPMENIGLQDSLLSRFDLLFIMLDQMDPEQDREISDHVLRMHRYRAPGEQDGDAMPLGSAVDILATDDPNFSQEDQQDTQIYEKHDNLLHGTKKKKEKMVSAAFMKKYIHVAKIIKPVLTQESATYIAEEYSRLRSQDSMSSDTARTSPVTARTLETLIRLATAHAKARMSKTVDLQDAEEAVELVQYAYFKKVLEKEKKRKKRSEDESETEDEEEKSQEDQEQKRKRRKTRQPDAKDGDSYDPYDFSDTEEEMPQVHTPKTADSQETKESQKVELSESRLKAFKVALLDVFREAHAQSIGMNRLTESINRDSEEPFSSVEIQAALSKMQDDNQVMVSEGIIFLI | binds | binds |  |
